Counter-ions that a name gives are not always drawn. Like-named read-outs stand apart in the source and are kept apart here.

These results are taken from article PMC5681660, “Reduced hepatitis B and D viral entry using clinically applied drugs as novel inhibitors of the bile acid transporter NTCP” (Scientific Reports, 2017).

In assay [1] the target is T1, human NTCP (Homo sapiens, UniProt Q14973).
T1 sequence (Q14973 1-349): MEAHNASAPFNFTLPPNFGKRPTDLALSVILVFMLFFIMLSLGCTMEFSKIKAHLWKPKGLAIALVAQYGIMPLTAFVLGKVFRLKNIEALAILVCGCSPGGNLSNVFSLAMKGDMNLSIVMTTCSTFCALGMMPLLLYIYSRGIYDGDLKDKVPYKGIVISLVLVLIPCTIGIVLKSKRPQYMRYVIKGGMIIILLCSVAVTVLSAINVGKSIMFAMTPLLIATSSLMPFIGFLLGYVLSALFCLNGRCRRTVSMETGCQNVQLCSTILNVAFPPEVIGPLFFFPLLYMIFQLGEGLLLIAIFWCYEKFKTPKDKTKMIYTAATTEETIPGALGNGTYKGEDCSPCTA
Description: Screening fluorescent competitive Myrcludex B-FITC binding assay (96-well, 10 µM drug). As to conditions: for remaining activity at 10 µM: 0.5 h; for %NTCP binding: 10 µM drug, Myrcludex B-FITC binding.

Assay [2] deals with T1, human NTCP. Description: Screening taurocholate uptake assay (96-well, [14C]taurocholate, 10 µM drug). As to conditions: for remaining activity at 10 µM: 10 min, read-out: %NTCP activity.
Where [3] appears, read: read-out: %NTCP binding, Prestwick library screen, Myrcludex B-FITC binding, 10 µM drug.

On to `CC(=O)O[C@H]1C(=O)[C@@]2(C)[C@H]([C@H](OC(=O)c3ccccc3)[C@]3(O)C[C@H](OC(=O)[C@H](O)[C@@H](NC(=O)c4ccccc4)c4ccccc4)C(C)=C1C3(C)C)[C@]1(OC(C)=O)CO[C@@H]1C[C@@H]2O` [Paclitaxel], for which the remaining activity at 10 µM at human NTCP [1] (read-out: %NTCP binding) came out at 84.7%; on human NTCP [2] it was 74.2%.

For the compound `O=C1c2cccc3c2[C@H](CCC3)CN1[C@@H]1CN2CCC1CC2` [Palonosetron hydrochloride], the remaining activity at 10 µM on human NTCP [1] (read-out: %NTCP binding) was found to be 57.4%; at human NTCP [2], 122%.

Regarding `CC(=O)O[C@H]1C[C@@H]2CC[C@@H]3[C@H](CC[C@@]4(C)[C@H]3C[C@H]([N+]3(C)CCCCC3)[C@@H]4OC(C)=O)[C@@]2(C)C[C@@H]1[N+]1(C)CCCCC1` [Pancuronium bromide], the remaining activity at 10 µM on human NTCP [1] (setting [3]) is 83.3%; at human NTCP [2] it was 115%.

As for `CC(C)(CO)[C@@H](O)C(=O)NCCCO` [Panthenol (D)], the “%NTCP binding” value at human NTCP [1] (Prestwick library screen) was 109.837%. For the same compound, the “%NTCP activity” value on human NTCP [2] (Prestwick library screen, 10 µM drug, [14C]taurocholate uptake) turned out to be 123.189%.

With `COc1ccnc(C[S+]([O-])c2nc3ccc(OC(F)F)cc3[nH]2)c1OC` (centres unmarked) [Pantoprazole sodium], the remaining activity at 10 µM on human NTCP [1] (read-out: %NTCP binding) is 90%; on human NTCP [2] it was 87.1%.

For `COc1ccc(Cc2nccc3cc(OC)c(OC)cc23)cc1OC` [Papaverine hydrochloride], the remaining activity at 10 µM at human NTCP [1] (setting [3]) is 83.8%; at human NTCP [2], 108%.

On to `CCCCc1ccc2[nH]c(NC(=O)OC)nc2c1` [Parbendazole], for which the remaining activity at 10 µM is 80.9% on human NTCP [1] (read-out: %NTCP binding, Prestwick library screen, 10 µM drug, Myrcludex B-FITC binding) and 103% at human NTCP [2].

`C#CCN(C)Cc1ccccc1` [Pargyline hydrochloride]: the remaining activity at 10 µM at human NTCP [1] (read-out: %NTCP binding) was determined as 84%; on human NTCP [2] it was 109%.

For `NC[C@@H]1O[C@H](O[C@H]2[C@@H](O)[C@H](O[C@@H]3[C@@H](O)[C@H](N)C[C@H](N)[C@H]3O[C@H]3O[C@H](CO)[C@@H](O)[C@H](O)[C@H]3N)O[C@@H]2CO)[C@H](N)[C@@H](O)[C@@H]1O` [Paromomycin sulfate], the remaining activity at 10 µM was determined as 92.7% on human NTCP [1] (read-out: %NTCP binding) and 104% at human NTCP [2].

In the case of `Fc1ccc([C@@H]2CCNC[C@H]2COc2ccc3c(c2)OCO3)cc1` [Paroxetine Hydrochloride], the remaining activity at 10 µM on human NTCP [1] (read-out: %NTCP binding) is 95.3%; on human NTCP [2] it was 91%.

In the case of `C=C1C(=O)O[C@H]2[C@H]1CC/C(C)=C/CC[C@@]1(C)O[C@@H]21` [Parthenolide], the remaining activity at 10 µM came out at 31.8% at human NTCP [1] (read-out: %NTCP binding) and 121% at human NTCP [2].

Regarding `Cc1cccn2c(=O)c(-c3nnn[nH]3)cnc12` [Pemirolast potassium], the remaining activity at 10 µM at human NTCP [1] (read-out: %NTCP binding) came to 76.1%; at human NTCP [2] it was 67.7%.

On to `CN1C(C)(C)CCCC1(C)C` [Pempidine tartrate], for which the remaining activity at 10 µM came to 80.7% at human NTCP [1] (read-out: %NTCP binding) and 82.4% on human NTCP [2].

For `CC(C)(C)NC[C@H](O)COc1ccccc1C1CCCC1` [Penbutolol sulfate], the results for the remaining activity at 10 µM on human NTCP [1] (read-out: %NTCP binding) and on human NTCP [2] were 83.8% and 113%, respectively.

On to `Nc1nc2c(ncn2CCC(CO)CO)c(=O)[nH]1` [Penciclovir], for which the remaining activity at 10 µM stood at 85.7% at human NTCP [1] (read-out: %NTCP binding) and 115% on human NTCP [2].

For the compound `N=C(N)c1ccc(OCCCCCOc2ccc(C(=N)N)cc2)cc1` [Pentamidine isethionate], the remaining activity at 10 µM at human NTCP [1] (read-out: %NTCP binding) came out at 74.1%; at human NTCP [2] it was 65.6%.

Turning to `O=C(O)CN(CCN(CC(=O)O)CC(=O)O)CCN(CC(=O)O)CC(=O)O` [Pentetic acid], the values for the remaining activity at 10 µM at human NTCP [1] (read-out: %NTCP binding) and on human NTCP [2] were 87.9% and 63.6%, respectively.

For `CCCC(C)C1(CC)C(=O)NC(=O)NC1=O` (centres unmarked) [Pentobarbital], the remaining activity at 10 µM is 87.5% on human NTCP [1] (read-out: %NTCP binding) and 116% at human NTCP [2].

For `C[N+]1(CCCCC[N+]2(C)CCCC2)CCCC1.O=C([O-])C(O)C(O)C(=O)O.O=C([O-])C(O)C(O)C(=O)O` [Pentolinium bitartrate], the “%NTCP binding” value on human NTCP [1] (screen) is 76.0867%. Moreover, on human NTCP [2], the “%NTCP activity” value turned out to be 114.556%.
